Variants at the background level are over-represented here.
B1: glmS ribozyme (parent)
chain: AUAAAAGCGCCAGAACUACAGAAAUGUAGUUGACGAGGAGGAGGUUUAUCGAAUUUUCGGCGGAUGCCUCCAAA

Experiments:
Conditions in all cases: with glucosamine-6-phosphate
glucosamine-6-phosphate [1] = variants of: B1; test: self-cleavage kobs at 40 uM GlcN6P; higher = faster cleavage; RNA array
In short: (§1)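 Barcoded ribozyme variants on sequenced MiSeq chips were transcribed in situ by E. coli RNA polymerase and followed at 37 °C through a hybridised Cy3 probe. Glucosamine-6-phosphate at 40 μM to 10 mM in HEPES/KCl/Mg(OAc)2 buffer was flowed in, and tiles were imaged over ~14 h. Signals were normalised to baseline and to non-cleaving reference variants, and per-tile medians were fit to one- or two-exponential decays to give kobs. Weighted Michaelis–Menten fits across concentrations gave kcat and KM.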

glucosamine-6-phosphate [2] = variants of: B1; test: self-cleavage kobs at 160 uM GlcN6P; higher = faster cleavage; RNA array
In short: as §1

glucosamine-6-phosphate [3] = variants of: B1; test: self-cleavage kobs at 10000 uM GlcN6P; higher = faster cleavage; RNA array
In short: as §1

glucosamine-6-phosphate [4] = variants of: B1; test: kcat; higher = faster cleavage; RNA array
In short: as §1

glucosamine-6-phosphate [5] = variants of: B1; test: self-cleavage kobs at 2500 uM GlcN6P; higher = faster cleavage; RNA array
In short: as §1

glucosamine-6-phosphate [6] = variants of: B1; test: self-cleavage kobs at 640 uM GlcN6P; higher = faster cleavage; RNA array
In short: as §1

Row | Variant | self-cleavage kobs at 40 uM GlcN6P (glucosamine-6-phosphate [1]) [s⁻¹] | self-cleavage kobs at 160 uM GlcN6P (glucosamine-6-phosphate [2]) [s⁻¹] | self-cleavage kobs at 10000 uM GlcN6P (glucosamine-6-phosphate [3]) [s⁻¹] | kcat (glucosamine-6-phosphate [4]) [s⁻¹] | self-cleavage kobs at 2500 uM GlcN6P (glucosamine-6-phosphate [5]) [s⁻¹] | self-cleavage kobs at 640 uM GlcN6P (glucosamine-6-phosphate [6]) [s⁻¹]
1 | AUAAACGCGCCAGGACUACAGAAAUGUAGUUGAGGAGGAGGAGGAUUAUCGAAUUUUCGGCGGAUGUCUGCAAA [A6C A14G C34G U45A C67U C70G] | < 1e-05 | < 1e-05 | < 1e-05 | – | – | –
2 | AUAAUAGCGGCAGAUCUACAGAAAUGUAGUUGACGAGGAGAAGGUUUAUCGAAUUUUCGGCGGUUGCCUCCAAA [A5U C10G A15U G41A A64U] | < 1e-05 | – | < 1e-05 | – | – | –
3 | AUAAAAGCGCCAGAACUACAGAAAUGUAGUUGACGAGGAGGAGGUUUAUCGAAUUUUCGGCUGAUGCCUCCAAA [G62U] | < 1e-05 | < 1e-05 | < 1e-05 | < 1e-05 | – | –
4 | AUAAACGCGCCAGAACUACAGAAAUGUAGUUGCCGAGGAGGAGGUUUAUCGAAUUUUCGGCUGAUGUCUCCAAA [A6C A33C G62U C67U] | < 1e-05 | – | – | – | < 1e-05 | –
5 | UGGAUCCAUAAAGAACUACAGAAAUGUAGUUGACGAGGAGGAGGUUUAUCGAAUUUUCGGCGGAUGCCUCCAAA [A1U U2G A3G A5U A6C G7C C8A G9U C10A C11A] | < 1e-05 | < 1e-05 | < 1e-05 | – | < 1e-05 | < 1e-05
6 | AUAAAAGCGCCAGAACUACAGAAAUGUAGUUGACGAGGAGGAGGUUUAUCGAAUUUUCGGCGGCUGCCUCAAAA [A64C C71A] | < 1e-05 | – | – | < 1e-05 | – | –
7 | AUAAAAGCGCCAGAACUACAGAAAUGUAGUUGACGAGGAGGAGGUUUAUCGAAUUUUCGGCGGCUGCCUCGAAA [A64C C71G] | – | – | – | < 1e-05 | – | –
8 | AUAAACGCGCCAGUACUACAGAAAUGUAGUUGACGAGGAGGAGGUUUAUCGAGUUUUCGGCGGAUGCCUCGAAA [A6C A14U A53G C71G] | < 1e-05 | – | – | – | – | –
9 | AUAAAAGCGCCAGAACUACAGAAAUGUAGUUGACGAGGAGGAGGUUUAUCGAAUUUUCGGCGGAUGCGUGCAAA [C68G C70G] | – | – | – | < 1e-05 | – | –
10 | AUAAAAGCGCCAGAACUACAGAAAUGUAGUUGACGAGGAGGAGGUUUAUCGAAUUUUCGGGGGAUACCUCCAAA [C61G G66A] | < 1e-05 | – | – | < 1e-05 | – | –
11 | AUAAACGCGCCAGCACUACAGAAAUGUAGUUGACGAGGAGGAGGUUUAUCGAAUUUUCUGCGGAUGCCUCCAAA [A6C A14C G59U] | < 1e-05 | – | – | – | – | –
12 | AUAAAAGCGCCAGAACUACAGAAAUGUAGUUGACGAGGAGGAGGUUUAUCGAAUUUUCGGUGGAUGCUUCCAAA [C61U C68U] | – | – | < 1e-05 | < 1e-05 | – | –
13 | AUAAACGCGCCAGAACUACAGAAAUGUAGUUGACGAGGUGGAGGUUUAUCGAAUUAUCGGCGGGUGCCUCCAAA [A6C A39U U56A A64G] | < 1e-05 | – | – | – | – | –
14 | AUAAAAGCGCCAGAACUACAGAAAUGUAGUUGACGAGGAGGAGGUUUAUCGAAUUUUCGGCAGAUGCGUCCAAA [G62A C68G] | < 1e-05 | – | < 1e-05 | < 1e-05 | – | –
15 | AUAAAAGCGCCAGAACUACAGAAAUGUAGUUGACGAGGAGGAGGUUUAUCGAAUUUUCGGCGGUUGCGUCCAAA [A64U C68G] | – | – | – | < 1e-05 | – | –
16 | ACAAAAGCCCCAGAACUACAGAAAUGUAGUUGACGAGGAGGAGGUUUGUCGAAUUUUCGGCAGAUGCUUCCAAA [U2C G9C A48G G62A C68U] | < 1e-05 | – | – | – | – | –
17 | AUAAACGCGCCAGACCUACAGAAAUGUAGUUGACGAGGAGGAGGUUUAUCGAAUUUUCGGCGGAUGCCUCCAAA [A6C A15C] | < 1e-05 | – | – | – | – | –

Row | Variant | self-cleavage kobs at 40 uM GlcN6P (glucosamine-6-phosphate [1]) [s⁻¹] | self-cleavage kobs at 160 uM GlcN6P (glucosamine-6-phosphate [2]) [s⁻¹] | self-cleavage kobs at 10000 uM GlcN6P (glucosamine-6-phosphate [3]) [s⁻¹] | kcat (glucosamine-6-phosphate [4]) [s⁻¹] | self-cleavage kobs at 2500 uM GlcN6P (glucosamine-6-phosphate [5]) [s⁻¹] | self-cleavage kobs at 640 uM GlcN6P (glucosamine-6-phosphate [6]) [s⁻¹]
18 | AUAAACGCGCCAGAACUACAGAAAUGUAGUUGACGAGGAGGAGGUUUAUCGCAUUUUCGGCGGAUGCCUCCAAA [A6C A52C] | < 1e-05 | < 1e-05 | < 1e-05 | – | < 1e-05 | < 1e-05
19 | AUAAAAGCGCCAGAACUACAGAAAUGUAGUUGACGAGGAGGAGGUUUAUCGAAUUUUCGGCGGAUGCGUCAAAA [C68G C71A] | < 1e-05 | – | – | < 1e-05 | – | –
20 | AUAAACGCGCCAGAACUACAGAAAUGUAGUUGACGAGGAGGAGGUUUAUCGAAUUUUCGGCGGCUGCCUCCAAA [A6C A64C] | < 1e-05 | < 1e-05 | < 1e-05 | – | < 1e-05 | < 1e-05
21 | AUAAACGAGCCAGAACUACAGAAAUGUAGGUGACGAGGAGGAGGUUUAUCGAAUUUUCGGCGUAUGCCUCCAAA [A6C C8A U30G G63U] | < 1e-05 | – | < 1e-05 | – | < 1e-05 | –
22 | AUAAACGCGCCAGAUCUACAGAAAUGUAGUUGACGAGGAGUAGGUUUUUCGAAUUUUCGGCGUAUGCCUCCAAA [A6C A15U G41U A48U G63U] | < 1e-05 | – | < 1e-05 | – | – | –
23 | AUAAACGCGCCCGAACUACAGAAAUGUAGUUGACGAGGAGGAGGUUUAUCGAAUUUUCGGCGGAUGCCUCUAAA [A6C A12C C71U] | < 1e-05 | – | – | – | – | –
24 | AUAAAAGCGCCAGAACUACAGAAAUGUAGUUGACGAGGAGGAGGUUUAUCGAAUUUUCGGAAGAUGCCUCCAAA [C61A G62A] | < 1e-05 | – | – | < 1e-05 | – | –
25 | AUAAACGCGCCAGAACUACAGAAAUGUAGUUGCCGAGGAGCAGGUUUAUCGCAUUUUCGGCGGAUGCCUCCAAA [A6C A33C G41C A52C] | < 1e-05 | – | – | – | – | –
26 | AUAAAAGCGCCAGAACUACAGAAAUGUAGUUGACGAGGAGGAGGUUUAUCGAAUUUUCGGCCGAUGCUUCCAAA [G62C C68U] | – | – | – | < 1e-05 | < 1e-05 | –
27 | AUAAAAGCGCCAGAACUACAGAAAUGUAGUUGACGAGGAGGAGGUUUAUCGAAUUUUCGGCCGUUGCCUCCAAA [G62C A64U] | – | < 1e-05 | < 1e-05 | < 1e-05 | – | < 1e-05
28 | AUAAAAGCGCCAGAACUACAGAAAUGUAGUUGACGAGGAGGAGGUUUAUCGAAUUUUCAGCGGAUCCCUCCAAA [G59A G66C] | – | – | – | < 1e-05 | – | –
29 | AUAAAAGCGCCAGAACUACAGAAAUGUAGUUGACGAGGAGGAGGUUUAUCGAAUUUUCCGAGGAUGCCUCCAAA [G59C C61A] | – | < 1e-05 | < 1e-05 | < 1e-05 | – | < 1e-05
30 | AUAAACGCGCCAGAACUACAGAAAUGUAGUUGACGCGGAGGAGGUUUAUCGAAUUUUCGGCGGAUGCCUCCAAA [A6C A36C] | < 1e-05 | < 1e-05 | < 1e-05 | – | – | –
31 | AUAAACGCGCCAGAACUACAGAAAUGUAGUUGACGAGGAGGAGGUUUGUCGAAUUUUCGGCGGAUGCCUUCAAA [A6C A48G C70U] | < 1e-05 | – | < 1e-05 | – | – | –
32 | AUAAAAGCGCCAGAACUACAGAAAUGUAGUUGACGAGGAGGAGGUUUAUCGAAUUUUCGACGGAGGCCUCCAAA [G60A U65G] | – | – | – | < 1e-05 | – | < 1e-05
33 | AUAAACGCGCCAGAACUACAGAAAUGUAGUUGACGAGGGGAAGGUAUAUCGAAUUUUCGGCGGGUGCCUCCAAA [A6C A39G G41A U46A A64G] | < 1e-05 | – | < 1e-05 | – | – | –

From the supplement of paper PMC7125110
